Reference: the supplement of paper PMC3334620
The full ranking holds about 33,000 sequences; the median of “E-score (-0.5 to 0.5)” is about -0.054, and the highest 2% start at about 0.39. The list shows a part of the results.

molecular target: Ylr278c (UniProt Q05854); experiment: PBM E-score (8-mer binding enrichment) (E-score (-0.5 to 0.5)); higher = stronger / more preferred TF binding; most listed sequences are background and not binding sites; details: protein concentration: 200 nM; construct: GST-DNA-binding domain
Experimental: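 Universal 'all 10-mer' protein binding microarrays (Agilent AMADID 015681) probed with GST-tagged S. cerevisiae TFs (full-length or DBD) made by in vitro transcription/translation (PURExpress), about 100-200 nM. Bound TF was detected with fluorescent anti-GST. Each ungapped 8-mer (which stands for itself and its reverse complement) is scored by the PBM enrichment score (E-score), a modified Wilcoxon-Mann-Whitney statistic from -0.5 to +0.5, computed with the Universal PBM Analysis Suite. Scale: above 0.35 generally sequence-specific binding.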

| Sequence | PBM E-score |
| --- | --- |
| GGCAAGCA | -0.135 |
| GGCTTAGA | -0.256 |
| AACTCCAG | 0.00847 |
| GGATGACA | 0.0528 |
| ATCCAAGG | 0.0179 |
| CTTAGTTA | -0.191 |
| ACAGTCGG | 0.211 |
| TAACACGA | -0.00428 |
| AGTCCTAA | -0.163 |
| TGGACTAA | -0.188 |
| ACACACGT | -0.224 |
| AGCAAAAA | 0.0154 |
| ACTATCGG | 0.308 |
| CAATGTCA | -0.169 |
| CTTCCGTA | 0.215 |
| ACGTAATC | 0.00425 |
| TCACGGCA | 0.121 |
| CCGAGGCG | 0.189 |
| ACTCTGTG | -0.143 |
| CCACATCA | 0.0135 |
| ATGGATTC | -0.137 |
| AACCCCGG | 0.458 |

| Sequence | PBM E-score |
| --- | --- |
| ACCCCTGA | 0.0621 |
| AAGGTCAT | -0.145 |
| CGGTGCCC | 0.138 |
| AATTGAGT | 0.044 |
| CTGTAACA | -0.335 |
| AAAAAAGT | -0.092 |
| GTCAGTGA | -0.182 |
| TCCGATCA | 0.385 |
| ACATATAT | -0.0474 |
| ACGACGGC | 0.0705 |
| CACTACGG | 0.201 |
| AGTGACGG | 0.17 |
| ACTTTGCC | 0.0108 |
| AGAGAAAA | 0.0726 |
| ATTGGACG | -0.00534 |
| GTATATAA | -0.169 |
| CCCTTTGC | -0.106 |
| ATTTCGGC | 0.275 |
| AGTGTTTA | -0.00365 |
| CAGCTGCC | 0.124 |
| AGCCAAGA | -0.157 |
| ACAATCCA | -0.0581 |

| Sequence | PBM E-score |
| --- | --- |
| AACTTAGC | -0.178 |
| AGATAAAG | -0.131 |
| ATTTAAAT | -0.0559 |
| GGATTGCC | 0.145 |
| ATGACTCG | 0.0162 |
| ACACGAGC | -0.169 |
| CAAGCATG | -0.186 |
| CAATTCAA | -0.19 |
| ACCTTAAT | -0.182 |
| AATCGGGC | 0.0936 |
| CATTCGCG | 0.246 |
| CGACGGGC | 0.2 |
| CTAACGGC | 0.114 |
| AGAGGCAT | 0.0417 |
| AGACATAC | -0.178 |
| CCAGCAAC | 0.0323 |
| CGGATTTA | 0.451 |
| AAAGAGAC | -0.0916 |
| ATGCATCG | 0.171 |
| AGTGTGAA | -0.0842 |
| AGCGTCCG | 0.16 |
| GAATGTTA | 0.148 |

| Sequence | PBM E-score |
| --- | --- |
| AATTTAGG | 0.00015 |
| ACGGCGAC | 0.14 |
| ACTCCGGC | 0.476 |
| GATGCTAA | -0.0101 |
| AAGCATAA | -0.0791 |
| GACAACTA | -0.117 |
| ATCGTAGC | -0.122 |
| GATTGGCA | -0.2 |
| ACGAGCCT | -0.218 |
| ACCAGCAA | 0.117 |
| CTACCCTC | -0.162 |
| AGCTAGAC | -0.174 |
| CGTAGGCC | -0.142 |
| GCCCTCGA | -0.298 |
| AGCGTATC | -0.124 |
| GCACCCAA | 0.127 |
| ATGGGTTG | -0.114 |
| CTAAGCAG | -0.0236 |
| TCAATCCA | -0.124 |
| GCGATCAA | -0.0978 |
